# Data as given in PubChem BioAssay (EPA / NIEHS).
# Inconclusive results are not listed. Rule for the calls: active = hit-call score of the fitted dose curve at least 0.9, where 1 is the maximum; inconclusive = response in the unintended direction; inactive = score below 0.9. For part of its entries the source gives two or more results. This list holds those alone. The source may hold further records. The values listed for one entry repeat one measurement in other runs, samples, wells, individuals or studies.
# Target: Nuclear receptor subfamily 1 group I member 2 (Homo sapiens) (UniProt O75469)
# Assay: ATG_PXR_TRANS: Attagene TRANS-FACTORIAL HepG2 Assay for human Pregnane X Receptor (PXR) (AID 2283008)
# Method in brief: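 Fluorescence intensity of FAM-labelled, HpaI-digested reporter amplicons, separated by capillary electrophoresis, quantifies induction. HepG2 cells with PXR-Gal4 trans-reporter system were exposed 24 h; DMSO defines baseline.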
# Chain of UniProt O75469 (O75469 whole entry, looked up): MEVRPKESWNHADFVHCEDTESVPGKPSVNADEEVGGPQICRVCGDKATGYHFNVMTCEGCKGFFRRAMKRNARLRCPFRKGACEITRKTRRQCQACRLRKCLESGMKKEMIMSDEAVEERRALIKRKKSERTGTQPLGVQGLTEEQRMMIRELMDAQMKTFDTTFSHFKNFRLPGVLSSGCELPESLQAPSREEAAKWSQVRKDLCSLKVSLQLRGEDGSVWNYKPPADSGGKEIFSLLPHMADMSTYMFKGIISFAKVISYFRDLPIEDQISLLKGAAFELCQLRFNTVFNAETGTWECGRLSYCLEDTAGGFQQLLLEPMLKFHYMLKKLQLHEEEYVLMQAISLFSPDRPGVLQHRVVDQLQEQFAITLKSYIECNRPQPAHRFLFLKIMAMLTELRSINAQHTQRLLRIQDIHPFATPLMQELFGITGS
row,SMILES,AC50
1,CC1(C)NC(=O)N(c2ccc([N+](=O)[O-])c(C(F)(F)F)c2)C1=O,"active: 15.8, 26.8, 27.6, 7.06 µM [separate samples]"
2,O=C1CCC(C2CCCCC2)CC1,"active: 8.68, 27.2, 15.9, 6.27 µM [separate samples]"
3,CCCCCCCC[Si](OCC)(OCC)OCC,"active: 9.26, 4.81, 9.15, 26.8 µM [separate samples]"
